Assay results from a compilation of properties of binary mixtures (doi:10.1016/j.fluid.2022.113414).
The densities may have been worked out from excess volumes.

Experiment: xn = mol fraction of the nth substance listed
Settings: 101.3 kPa

CC(=O)[O-].CN1CCCN2CCC[NH+]=C12 + O
mass density [kg/m3]
Settings	x1 = 0.103	x1 = 0.206	x1 = 0.301	x1 = 0.405	x1 = 0.494	x1 = 0.604
278.2 K	1120.3	1154.2	1165.7	–	1170.8	1171
283.2 K	–	–	1162.1	1165.6	–	1167.4
288.2 K	1113.6	1147.1	1158.8	1162.2	1163.5	1163.9
293.2 K	1110	1143.5	1155.1	–	1160	1160.5
298.2 K	1106.6	1139.9	–	1155.4	–	1157
303.2 K	1103.4	1136.3	–	1152	1153.2	–
308.2 K	1099.9	–	–	1148.5	1149.7	1149.9
313.2 K	1096.4	1128.8	–	1145	–	1146.4
318.2 K	1092.6	1125.3	–	1141.5	–	1142.9
323.2 K	1089.3	1121.6	1134.1	1137.8	1138.8	–
328.2 K	1085.7	1117.9	1130.5	1134.2	1135.5	1135.8
333.2 K	1082.1	–	1126.9	1130.9	1131.6	1132.2
338.2 K	1078.4	1110.3	1123.3	1127.1	–	1128.6
343.2 K	–	1106.8	1119.6	1123.7	1124.4	1125
348.2 K	1071	1103.1	1116	1120.1	1121.1	1121.4
353.2 K	1067	1099.1	–	1116.5	1117.2	1117.8
358.2 K	–	–	1108.6	1112.8	1113.5	–
363.2 K	1059.4	1091.5	1104.8	1109.2	1110.1	–
368.2 K	–	1087.9	1101.1	1105.5	1106.2	–
373.2 K	–	1083.8	–	1101.8	1102.7	–
